In paper PMC11995724, “Antibiotic target discovery by integrated phenotypic and activity-based profiling of electrophilic fragments” (Cell chemical biology, 2025):
In all, about 3,200 compounds went through this assay and about 75 (2%) showed an effect of 50% or more. The list shows a part of the results.

Each compound was assayed on T1, S. aureus MSSA476. Conditions: relative growth, OD600, TSB; 25 µM; inhibitor.
T1 construct: MSSA476
Design: species or system S. aureus MSSA476 (TSB) or V. cholerae SAD30 (LB); 384-well bacterial growth screen at 25 uM, OD600 relative to DMSO control
With `C=CC(=O)N1CCC(O)(c2ccccc2)CC1` [1-E15, 1-(4-hydroxy-4-phenylpiperidin-1-yl)prop-2-en-1-one] the “% of control remaining” value was 97.0549%.
With `CC(Cl)C(=O)N1Cc2ccccc2OCC1C` (centres unmarked) [7-F11, 2-chloro-1-(3-methyl-2,3,4,5-tetrahydro-1,4-benzoxazepin-4-yl)propan-1-one] the “% of control remaining” value was 98.5871%.
In the case of `Cc1cc(C(=O)CCl)c(C)n1-c1ccc(Cl)c(Cl)c1` [10-D18, 2-chloro-1-[1-(3,4-dichlorophenyl)-2,5-dimethyl-1H-pyrrol-3-yl]ethan-1-one], the “% of control remaining” value is reported as -0.3125%.
For `CCCCNC(=O)C(C#N)=Cc1cc(F)ccc1F` [8-K08, N-butyl-2-cyano-3-(2,5-difluorophenyl)prop-2-enamide], the “% of control remaining” value was 71.3693%.
`C=CC(=O)Nc1ccc2c(c1)N(CC#N)CC2` [1-C19, N-[1-(cyanomethyl)-2,3-dihydro-1H-indol-6-yl]prop-2-enamide] was tested, and the “% of control remaining” value was 98.4615%.
With `O=C1C=CC(=O)N1c1ccc(OC(F)F)cc1` [10-P11, 1-[4-(difluoromethoxy)phenyl]-2,5-dihydro-1H-pyrrole-2,5-dione] the “% of control remaining” value was 110.313%.
With `C=CC(=O)Nc1ccccc1C(=O)N(C)C(C)C` [3-H17, N-methyl-2-(prop-2-enamido)-N-(propan-2-yl)benzamide] the “% of control remaining” value was 126.426%.
`CC(Cl)C(=O)NC(c1ccc(F)cc1)c1cnn(C)c1` (centres unmarked) [7-C19, 2-chloro-N-[(4-fluorophenyl)(1-methyl-1H-pyrazol-4-yl)methyl]propanamide] was tested, and the “% of control remaining” value was 93.2496%.
`C=CC(=O)NCC1(c2ccccc2)CC1(F)F` (centres unmarked) [2-O20, N-[(2,2-difluoro-1-phenylcyclopropyl)methyl]prop-2-enamide] was tested, and the “% of control remaining” value was 85.6397%.
`N#CC(=Cc1cnc2ccc(C#N)cn12)C(=O)Nc1ccc(F)cc1` [9-E20, 2-cyano-3-{6-cyanoimidazo[1,2-a]pyridin-3-yl}-N-(4-fluorophenyl)prop-2-enamide] was tested, and the “% of control remaining” value was 103.67%.
`Cc1cc(C(=O)CCl)c(C)n1Cc1ccc(F)cc1` [10-N17, 2-chloro-1-{1-[(4-fluorophenyl)methyl]-2,5-dimethyl-1H-pyrrol-3-yl}ethan-1-one] was tested, and the “% of control remaining” value was 4.6875%.
In the case of `O=C(CCl)Nc1nc2c(s1)CCc1ccccc1-2` [6-D03, 2-chloro-N-{4H,5H-naphtho[1,2-d][1,3]thiazol-2-yl}acetamide], the “% of control remaining” value is reported as 107.902%.
With `O=C(CCl)NC1CCC(O)(c2cccc(F)c2)CC1` (centres unmarked) [5-A11, 2-chloro-N-[4-(3-fluorophenyl)-4-hydroxycyclohexyl]acetamide] the “% of control remaining” value was 92.8962%.
In the case of `C=CC(=O)N1CC(OCc2nc(C)no2)C1` [1-P18, 1-{3-[(3-methyl-1,2,4-oxadiazol-5-yl)methoxy]azetidin-1-yl}prop-2-en-1-one], the “% of control remaining” value is reported as 106.549%.
For `C=CC(=O)NCCC(=O)N1CCN(c2ccccc2Cl)CC1` [3-J22, N-{3-[4-(2-chlorophenyl)piperazin-1-yl]-3-oxopropyl}prop-2-enamide], the “% of control remaining” value was 88.4632%.
In the case of `N#CC(=CC1=Cc2ccccc2OC1)C(=O)NCc1ccccc1` [9-F08, N-benzyl-3-(2H-chromen-3-yl)-2-cyanoprop-2-enamide], the “% of control remaining” value is reported as 121.348%.
With `C=CC(=O)N1CC(NC(=O)c2ccoc2CC)C(C)(C)C1` (centres unmarked) [1-L22, N-[4,4-dimethyl-1-(prop-2-enoyl)pyrrolidin-3-yl]-2-ethylfuran-3-carboxamide] the “% of control remaining” value was 111.473%.
For `C=CC(=O)NC1C(=O)OCC1(C)C` (centres unmarked) [1-E08, N-(4,4-dimethyl-2-oxooxolan-3-yl)prop-2-enamide], the “% of control remaining” value was 107.253%.
In the case of `C=CC(=O)N(Cc1sc(C)nc1C)[C@@H](C)[C@H]1COC(C)(C)O1` [1-B15, N-[(1S)-1-[(4S)-2,2-dimethyl-1,3-dioxolan-4-yl]ethyl]-N-[(2,4-dimethyl-1,3-thiazol-5-yl)methyl]prop-2-enamide], the “% of control remaining” value is reported as 95.2967%.
With `CC1CCCN(Cc2ccc(CNC(=O)CCl)cc2)C1.Cl` (centres unmarked) [6-K04, 2-chloro-N-({4-[(3-methylpiperidin-1-yl)methyl]phenyl}methyl)acetamide hydrochloride] the “% of control remaining” value was 97.6585%.
With `CC1CCCN(C(=O)C(NC(=O)C(C)Cl)c2cnn(C)c2)C1` (centres unmarked) [7-G12, 2-chloro-N-[1-(1-methyl-1H-pyrazol-4-yl)-2-(3-methylpiperidin-1-yl)-2-oxoethyl]propanamide] the “% of control remaining” value was 89.7959%.
With `CC(Cl)C(=O)NCc1nn(-c2ccccc2)c2c1CCC2` (centres unmarked) [7-P05, 2-chloro-N-({1-phenyl-1H,4H,5H,6H-cyclopenta[c]pyrazol-3-yl}methyl)propanamide] the “% of control remaining” value was 91.9937%.
`COc1ccc(NC(=O)c2ccccc2NC(=O)CCl)cc1` [4-L05, 2-(2-chloroacetamido)-N-(4-methoxyphenyl)benzamide] was tested, and the “% of control remaining” value was 88.8042%.
In the case of `C=CC(=O)NCC1CCC2(CCCOC2)O1` (centres unmarked) [2-O13, N-({1,7-dioxaspiro[4.5]decan-2-yl}methyl)prop-2-enamide], the “% of control remaining” value is reported as 103.742%.
In the case of `CSc1ccc(C=C(C#N)C(=O)Nc2ccc3c(c2)OCCO3)cc1` [9-L05, 2-cyano-N-(2,3-dihydro-1,4-benzodioxin-6-yl)-3-[4-(methylsulfanyl)phenyl]prop-2-enamide], the “% of control remaining” value is reported as 120.449%.
For `C=CC(=O)NCc1cccc(CNS(C)(=O)=O)c1` [3-F11, N-{[3-(methanesulfonamidomethyl)phenyl]methyl}prop-2-enamide], the “% of control remaining” value was 106.574%.
`CC(Cl)C(=O)NCC1c2ccccc2C(=O)N1Cc1ccccc1` (centres unmarked) [6-H20, N-[(2-benzyl-3-oxo-2,3-dihydro-1H-isoindol-1-yl)methyl]-2-chloropropanamide] was tested, and the “% of control remaining” value was 89.122%.
In the case of `CN(CCOc1ccccc1F)C(=O)CCl` [6-C03, 2-chloro-N-[2-(2-fluorophenoxy)ethyl]-N-methylacetamide], the “% of control remaining” value is reported as 79.2195%.
With `COc1cc(CN(C(=O)CCl)C2CC2)ccc1O` [7-H18, 2-chloro-N-cyclopropyl-N-[(4-hydroxy-3-methoxyphenyl)methyl]acetamide] the “% of control remaining” value was 94.1915%.
In the case of `CN(C(=O)CCl)C1CCN(c2ccccc2F)C1=O` (centres unmarked) [5-A18, 2-chloro-N-[1-(2-fluorophenyl)-2-oxopyrrolidin-3-yl]-N-methylacetamide], the “% of control remaining” value is reported as 99.8179%.
For `N#CC(=CC=Cc1ccccc1[N+](=O)[O-])C(=O)Nc1ccccc1` [8-P20, 2-cyano-5-(2-nitrophenyl)-N-phenylpenta-2,4-dienamide], the “% of control remaining” value was 137.427%.
In the case of `C=CC(=O)NCC(C)(C)C1(O)CCOC1` (centres unmarked) [3-K13, N-[2-(3-hydroxyoxolan-3-yl)-2-methylpropyl]prop-2-enamide], the “% of control remaining” value is reported as 125.033%.
For `O=C(CCl)Nc1nnc(SCc2ccccc2)s1` [4-F15, N-[5-(benzylsulfanyl)-1,3,4-thiadiazol-2-yl]-2-chloroacetamide], the “% of control remaining” value was 125.012%.
`COCCNC(=O)C(C#N)=Cc1sccc1C` [9-M17, 2-cyano-N-(2-methoxyethyl)-3-(3-methylthiophen-2-yl)prop-2-enamide] was tested, and the “% of control remaining” value was 102.172%.
For `CC(Cl)C(=O)Nc1ncc(C(F)(F)F)cc1Cl` (centres unmarked) [5-L22, 2-chloro-N-[3-chloro-5-(trifluoromethyl)pyridin-2-yl]propanamide], the “% of control remaining” value was 118.033%.
With `CC(C)NS(=O)(=O)c1ccc(NC(=O)C(C)Cl)cc1` (centres unmarked) [6-B10, 2-chloro-N-{4-[(propan-2-yl)sulfamoyl]phenyl}propanamide] the “% of control remaining” value was 103.122%.
With `Cn1cc(C=C(C#N)C(=O)Nc2ccccc2F)c(-c2ccncc2)n1` [9-L15, 2-cyano-N-(2-fluorophenyl)-3-[1-methyl-3-(pyridin-4-yl)-1H-pyrazol-4-yl]prop-2-enamide] the “% of control remaining” value was 78.2022%.
In the case of `Cc1cccc(CC(=O)CCl)c1` [10-I19, 1-chloro-3-(3-methylphenyl)propan-2-one], the “% of control remaining” value is reported as 130.938%.
For `N#C/C(C(=O)Nc1ccc(C(F)(F)F)cc1)=C(/O)C1CC1` [9-N22, (2Z)-2-cyano-3-cyclopropyl-3-hydroxy-N-[4-(trifluoromethyl)phenyl]prop-2-enamide], the “% of control remaining” value was 65.618%.
In the case of `C=CC(=O)NCCS(=O)(=O)N1CCOCC1` [2-E14, N-[2-(morpholine-4-sulfonyl)ethyl]prop-2-enamide], the “% of control remaining” value is reported as 124.282%.
`CCOc1ccc(C=C(C#N)C(=O)Nc2cccc3ncccc23)cc1` [8-A07, 2-cyano-3-(4-ethoxyphenyl)-N-(quinolin-5-yl)prop-2-enamide] was tested, and the “% of control remaining” value was 131.452%.
With `C=CC(=O)N1CCn2cccc2C1c1ccncc1` (centres unmarked) [3-M03, 1-[1-(pyridin-4-yl)-1H,2H,3H,4H-pyrrolo[1,2-a]pyrazin-2-yl]prop-2-en-1-one] the “% of control remaining” value was 98.2151%.
In the case of `C=CCNC(=O)C(C#N)=Cc1ccc(-c2ccc(F)cc2)s1` [9-C12, 2-cyano-3-[5-(4-fluorophenyl)thiophen-2-yl]-N-(prop-2-en-1-yl)prop-2-enamide], the “% of control remaining” value is reported as 113.858%.
For `C=CC(=O)NC1CCS(=O)(=O)C(C)C1` (centres unmarked) [3-A10, N-(2-methyl-1,1-dioxo-1lambda6-thian-4-yl)prop-2-enamide], the “% of control remaining” value was 114.933%.
